Read counts are not given, so values of variants with three or more changes are uncertain.

To fix the notation:
B1: CPEB3 Ribozyme (parent)
chain: UAACAGGGGGCCACAGCAGAAGCGUUCACGUCGCAGCCCCUGUCAGAUUCUGGUGAAUCUGCGAAUUCUGCUGUAUAUCUC

The variants in this series derive from B1. Put plainly: self-cleavage, relative activity (ratio to wild type); higher = more cleavage; in vitro, sequencing. The essentials:
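After error-prone PCR and barcoding, CPEB3 ribozyme mutant libraries were transcribed with T7 RNA polymerase at 37°C for 5 hours, then given 15 min with DNase I before an EDTA stop, and they cleaved during both steps. Reverse transcription with template switching preceded Illumina sequencing. Relative activity divides a variant's cleaved/total read fraction by the unmutated ribozyme's. At least 5 reads were required per variant, and three batches were averaged.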
As to UAACAGGGGGCCACAGGAGAAGCCUUCACGUCGUAGCCCCUGGCAGAUUCUGGUGAAACUGCGAAUUCUGCUGUAUAUCUC [C17G G24C C34U U43G U58A], the self-cleavage came to 0.06. Take UAACAGGGGGCCACAGUAGGAGCGUUCACGUGGCUGCCCCUGUCAGAUUCUGGUGAAUCUGCGAAUUCUGCUGUAUUUCUC [C17U A20G C32G A35U A77U]: the self-cleavage was 0.08.

As to UAACAGGGGGCCACAGUAGAAGCGUUCACGUCGCAGCCCAUGUCAGGUUCUGGUGAAUCUGCGAAUUCUGCUGUUUAUCUC [C17U C40A A47G A75U], the self-cleavage came out at 0.17. Then UAACAGGGGGCCACAGGAGAAGCGUUCACGUCGCGGCCCCAGUGAGAUUCUGUUGAAUCUGCGAAUUCUGCUGUAUAUCUC [C17G A35G U41A C44G G53U], with 0.14; and UAACAGGGGGCCACAGGAGAAGCGUUCACGUCGCAGCCCCUGUCAGAUUCCGGUGAAUCUGCGUAUCCUGCUGUAUAUCUC [C17G U51C A64U U67C], with 0.14; and UAACAGGGGGCCACAGUAGAAGCGUUCGCGUCGCAGCCCCUGUCAGAUUCUGGUGAAUCUGCGAAUUCUGCCGUAUAUCUC [C17U A28G U72C], with 0.21. UAACAGGGGGCCACAGGAGAAGCGUUCACGACGCAGCCCCUGUCAGAUUCCGGUGAAUCUGCGAAUUCUGCUGUAUAUCUC [C17G U31A U51C]: the self-cleavage came to 0.14.

As to UAACAGGGGGCCACAGUAGUAGCGUUCACGGCGCAGCCCCUGCCAGAUUCUGGUGAAUCUGCGAAUCCUGCUGUAUAUCUC [C17U A20U U31G U43C U67C], the self-cleavage amounted to 0.17. With UAACAGGGGGCCACAGUAGAAGCGUUCACGUCGCGGCCCCUGUCCGAUUCUGGUGAAUCUGCGAAUCCUGCUGUAUAUCUC [C17U A35G A45C U67C], the self-cleavage was 0.12. The same measure for UAACAGGGGGCCACAGGAGAAGCGUUCACGUCGCAGCCCAUGUCAGGUUCUGGUGAAUCUGCGAAUUCUGCUGUAUAUCUC [C17G C40A A47G]: 0.09. Then UAACAGGGGGCCACAGUAGAGGCGUUCACGUCGCAGGCCCUGUCAGAUUCUGGUGAACCUGCGAAUUCUGCUGUAUAUCUC [C17U A21G C37G U58C], with 0.13; and UAACAGGGGGCCACAGGAGAAGCGUUCACAUCGCAGCCCCUGCCAGAUUCUGGUGGAUCUGCGCAUUCUGCUGUAUAACUC [C17G G30A U43C A56G A64C U78A], with 0.08.

Turning to UAACAGGGGGCCACAGUAGAAGCGUUCACGUCGCAGCCCCUGUCAGAUUCUGGUGAAUCUGCGGAUUCUGCUGUAUACCUC [C17U A64G U78C], the self-cleavage is 0.39. On to UAACAGGGGGCCACAGUGGAAGCGUUCACGUCGCGGCCCCUGUCAGAUUCUGGUGAAUCUGCGAAUUCUGCUGUAUAUCUC [C17U A18G A35G], for which the self-cleavage worked out at 0.68. For the variant UAACAGGGGGCCACAGUAGAAGCGUUCGCGUAGCAGCCCCUGCCAGAUUCUGGUCAAUCUGCGAAUUCUGCUGUAUAUCUC [C17U A28G C32A U43C G55C], the self-cleavage came to 0.17. Then UAACAGGGGGCCACAGUAGAAGCGUUCACGUCGCAGCCCAUGUCAGAUUCUGGUGGAUCUGCGGAUUCUGCGGUAUUUCUC [C17U C40A A56G A64G U72G A77U], with 0.03; and UAACAGGGGGCCACAGUAGAAGCGUUCACGUCGCGGCCCCUGUCAGAUUCUGGUGAAUCUGCGAAUUCUGCUGCAUAUCUC [C17U A35G U74C], with 1.3; and UAACAGGGGGCCACAGGAGAAGCGUACACGUCGCAGCCCCUGUCGGAUUCAGGUGAAUCUGCGAAUUCCGCUGUAUUUCUC [C17G U26A A45G U51A U69C A77U], with 0.06.

Regarding UAACAGGGGGCCACAGGAGAAGCGUUCACGUCGCAGCCCCUGUCAGAUUCUGGUGAAUCUGCGAGUUCUGCUGUAUAUCAC [C17G A65G U80A], the self-cleavage amounted to 0.21. Then UAACAGGGGGCCACAGUAGAAGCGUUCGCGUCGCAGCCCCUGUCUGAUUCUGGUGAAUCUGCGAAUUCUGCUGUAUUUCUC [C17U A28G A45U A77U], with 0.3. The same measure for UAACAGGGGGCCACAGUAGAAGCGUUCAUGUCGCAGCCCUUGUCAGAUUCUGGUGAAUCUGCGAAUCCUGCUGUAUAUCUC [C17U C29U C40U U67C]: 0.04; for UAACAGGGGGCCACAGGAGAAGCGUUGACGUCGCAGCCCCUGUCAGGUUCGGGUGAAUCUGCGAAUUCUGCUGUAUAUCAC [C17G C27G A47G U51G U80A]: 0.06. Then UAACAGGGGGCCACAGUAGAGGCGUUCCCGUCACAGCCCCUGUCAGAUUCUGGUGAAUCUGCGGAUUCUGCUGAAUAUCUC [C17U A21G A28C G33A A64G U74A], with 0.04; and UAACAGGGGGCCACAGUAGGAGCGUUCACGUCGCGGCCCCUGUCAGAUUCUGGUGAAUCCGCGAAUUCUGCUGUAUAGCUC [C17U A20G A35G U60C U78G], with 0.31; and UAACAGGGGGCCACAGGAGAAGCGUUCGCGUCGCAGCCCCUGUCAGAUUCUGGUGAGUCCGCGAAUUCUGCAGUAUAUCUC [C17G A28G A57G U60C U72A], with 0.06. As to UAACAGGGGGCCACAGGAGAAGCGUUCACGCCGCAGCCCCUGUCGGAUUCUGGUGAAUCUGCGAAUUCUGCUGUAUAUCCC [C17G U31C A45G U80C], the self-cleavage was determined as 0.1. Then UAACAGGGGGCCACAGUGGUAGCGUUCACGUCGCAGCCCCUGUCAGAUUCUGAUGAAUCUGCGAAUUCUGCUGUACAUCUC [C17U A18G A20U G53A U76C], with 0.26; and UAACAGGGGGCCACAGGAGAAGCGCUCACGUCGGAGCCCCUGUCAGAAUCGGGUGAAUCUGUGAAUUCUGCUGUAUAUCUC [C17G U25C C34G U48A U51G C62U], with 0.08; and UAACAGGGGGCCACAGUAGAAGCGUUCACGUCGCAGCCCCUGUCUGAUUCUGGUGAAUCUGCGAAUUCUGCUGUACAUCUC [C17U A45U U76C], with 0.29. On to UAACAGGGGGCCACAGUAGAAGCGUUCACGUCGCAGCCCCUGUCGGAUUCUGGUGAAUCUGCGGAUUCUGCUGUAAAUCUC [C17U A45G A64G U76A], for which the self-cleavage was found to be 0.58. Turning to UAACAGGGGGCCACAGGAGAAGCGCGCACGUCGCAGCCCCUGUCAGAUUCUGGUGAAUCUGCGAAUACUGCUGUAUAUCUC [C17G U25C U26G U67A], the self-cleavage is 0.08. As to UAACAGGGGGCCACAGUAGGAGCGUUCACGUCGCAGCCCCUGUCAGAUUCUGGUGAAUCCGCGAAUUCUACUGUAUAUCUC [C17U A20G U60C G70A], the self-cleavage worked out at 0.26. Then UAACAGGGGGCCACAGUAGAGGCGUUCGCGUCGCAGCCCCUGCUAGAUUCUGGUGAAUCUGCGAAUUCUGCUGUAUUUCUC [C17U A21G A28G U43C C44U A77U], with 0.23. Regarding UAACAGGGGGCCACAGUAGAGGCGUUCACGUCGCAGCCCCUGUCAGAUUCUGGUGAAUCUGCGAAUUCUGCCGUAUAUCUC [C17U A21G U72C], the self-cleavage stood at 0.09.
